In US10172915B2, “Methods and compositions for activation of sirtuins with Annexin A1 peptides” (Duke University, priority 2013, dated 2019):

How the values were obtained:
[1] = tested on: Sprague-Dawley rats, cardioplegic arrest; experiment: Rat model of cardiopulmonary bypass with cardioplegic arrest (CPB/CA); format: in vivo
Description: Male Sprague-Dawley rats (12-15 weeks old) were randomly assigned to three groups: CA, CA+ANXA1sp, or CA+scrambled peptide. […] Heparin was administered before initiation of mildly hypothermic CPB (33° C.). A balloon catheter was placed in the ascending aorta and positioned approximately 3-4 mm proximal to the aortic valve under echocardiographic guidance, and inflated before cardioplegia was administered distal to the balloon and into the coronary vasculature. Heart function was monitored with electrocardiography (EKG) and echocardiography, and additional cardioplegia was administered as needed to maintain cardiac arrest. Acid base status, gas exchange, electrolyte, hemoglobin and glucose concentrations were measured with serial arterial blood gases (GEM Premier 3000).
All animals underwent 75 minutes of moderate hypothermic (33° C.) CPB with 45 minutes of cardiac arrest using blood cardioplegia, followed by reperfusion for 3 h, 6 h or 24 h (n=8/group and time point). Treated animals received ANXA1sp (3 mg/kg total) before (iv), during (with cardioplegia), and after CPB (iv), whereas CA animals received an equal volume of vehicle (1% DMSO in saline (FIG. 10B). At the end of the ischemic period the aortic balloon was deflated and cardioplegia was allowed to wash out of the heart. The animal was weaned off the heart-lung machine as tolerated; epinephrine, phenylephrine, and lidocaine were administered as needed to maintain appropriate perfusion and blood pressure. Animals were recovered for a period of 3, 6, or 24 hours of reperfusion (n=8/group and time point), final endpoint measurements obtained, then sacrificed via exsanguination. Immediately following sacrifice, left ventricular myocardial samples were preserved for study.
The following endpoints were assessed: plasma cTnI and heart-type fatty acid binding protein (HFABP, ELISA, Life Diagnosis); myocardial apoptosis as levels of cleaved caspase-3 (Western blot) and TUNEL assays (Roche); and echocardiographic left ventricular function. Myocardial levels of TNFα, IL-6, and myeloperoxidase (MPO) were analyzed by ELISA. SIRT3 and cytochrome c were measured in isolated mitochondria by Western blot.
Blood samples were collected from each rat at 24 h after CPB/DHCA. Samples were immediately cooled to 4° C. and centrifuged at 3,000 rpm for 10 minutes at 4° C. Serum was collected and stored at −80° C. until assay. Whole cell lysate from heart tissues was obtained according to manufacturer's instruction (Panomics) and used for measurement of pro-inflammatory cytokines IL-6, TNFα and MPO by an ELISA method (Thermo Scientific). Cellular levels of ATP were measured by ELISA (Abeam).
TUNEL assay was performed using the In Situ Cell Death Detection Kit (Roche Molecular Biochemicals) according to manufacturer's protocol. Briefly, paraffin sections of heart tissue were deparaffinized as described above. Tissue sections were incubated with terminal deoxynucleotidyl transferase (TdT) enzyme for 1.5 h at 37° C. in order to bind to exposed 3′-OH ends of DNA fragments generated in response to apoptotic signals. The reaction was terminated with stop solution and fluorescent apoptotic signal was detected using a fluorescence microscope (Zeiss LSM 510 inverted confocal). Ten fields of each tissue section were randomly chosen and a total of 50 cells per field were counted. The index of apoptosis was determined (TUNEL positive myocytes/total myocytes counted×100%) from a total of 20 fields per heart, and the assays were performed in a blinded manner.

[2] = tested on: adult rat ventricular cardiomyocytes (ARVCs); experiment: Long-term culture of ARVCs with repeat 800 μM peptide (cytotoxicity, lifespan)
[3] = tested on: adult rat ventricular cardiomyocytes (ARVCs); experiment: Simulated IR (OGD/reoxygenation) injury in adult rat ventricular cardiomyocytes; format: cell-based
Description: Following standard isolation and culture protocols, ARVCs were exposed to ANXA1sp (5, 10, 30, 60 μM) for 1 h, subjected to 2 h of oxygen glucose deprivation (OGD), followed by reoxygenation for 3, 6, or 24 h (FIG. 1). A scrambled peptide and dexamethasone (DEX) were used as negative and positive controls, respectively. ARVC injury was determined at the end of reoxygenation as levels of cardiac Troponin I (cTnI) in the culture medium using high-sensitivity ELISA (Life Diagnostics), viability using cell morphology and Trypan blue exclusion, and apoptosis using a Cell Death ELISA (Roche).
ARVCs were isolated from adult (12-15 weeks old) male Sprague-Dawley (SD) rats using a commercial isolation kit (Cellutron, Cat. #AC-7031), according to the manufacturer's protocol. Briefly, male Sprague-Dawley (SD) rats (300-350 g) were anesthetized with 2% isoflurane in oxygen in a plastic box. Ice-cold WB buffer (5 ml) was injected in both ventricles using a 26-gauge needle to arrest the heart and wash out blood. The heart was then quickly removed, carefully cannulated onto the Langendorff perfusion apparatus, and retrogradely perfused with 40 ml B1 buffer at the flow rate of 5 ml/min. The heart was then perfused in a recirculating mode with 50 ml B2 buffer. After 10 min, 100 μl of SB solution was quickly added in the B2 flow through and mixed well. The heart was continually perfused for 10 min. Additional 100 μl SB was added in the B2-SB flow through and continued to perfuse the heart for 15 min. The heart was removed from the apparatus, and the ventricles were separated below atrioventricular junction and cut into several sections in 24 ml of recirculated flow through. The ventricles were agitated in a shaking bath (37° C.) at a rate of 100 rpm for 15 min to release rod-shaped cardiomyocytes. The ventricles were slightly and gently triturated with the transfer pipette from which the tip was broken off and the sharp edges were softened by flame melting. The myocytes were filtered through nylon mesh (250 μM) and allowed to settle by gravity for 2 min. After centrifugation at 500 g for 3 min at room temperature, the cell pellet was resuspended in 10 ml of B3 buffer. After the myocytes were pelleted by gravity for 13 min in the 20 ml of 6.5% BSA in B3 buffer, the myocytes was resuspended in 12 ml of AS Medium (Cellutron Cat#: M-8033). Myocytes were plated in culture dishes pre-coated with laminin (Invitrogen Cat#: 23017-015). Two hours after plating, cells were washed with serum free AW medium (Cellutron Cat#: M-8034), and non-adhering cells were removed from the culturing system. Myocytes were incubated with AW medium in a 37° C. and 5% CO2 growth chamber overnight.
After 24 h incubation, ARVCs were pre-treated with known concentrations of ANXA1sp or scrPEP in growth medium for 1 h, and subjected to 2 h oxygen-glucose-deprivation (OGD: DMEM no glucose, 85% N2/10% H2/5% CO2) in a OGD station chamber/Anaerobic System (Farma Scientific), followed by reoxygenation with 10 μM ANXA1sp or scrPEP in growth medium for 3, 6, and 24 h in a 37° C. and 5% CO2 growth chamber, respectively.

[4] = 3 mg/kg in three doses, 45 min cardioplegic arrest, reperfusion 3, 6, 24 h

Substance	Myocardial leukocyte extravasation (MPO) ([1]; 3 mg/kg)	Plasma HFABP (myonecrosis biomarker) [1, 4]	Plasma TnI (myonecrosis biomarker) [1, 4]	LV systolic function, LV-FAC ([1]; 3 mg/kg, 24 h post-reperfusion, P=0.02 vs vehicle) [%]	Myocardial apoptosis, TUNEL positive nuclei ([1]; 3 mg/kg, reperfusion 24 h)	Myocardial levels of activated caspase-3 ([1]; 3 mg/kg, reperfusion 24 h)	Rod-shape survival time relative to cells treated with Ac2-26 [2] [times longer]	Rod-shape survival time relative to untreated cells [2] [times longer]	Lifespan of adult ventricular cardiomyocytes ([2]; cultured ARVCs)	ARVC injury, time course ([3]; 10 μM, 6 h and 24 h post hypoxia/reoxygenation)	Troponin I release from cardiomyocytes ([3]; 2 h OGD and 6 h reoxygenation, 5, 10, 30, and 60 μM)	Concentration of maximal effect on Troponin I release ([3]; 2 h OGD and 6 h reoxygenation, range 5-60 μM) [µM]	ARVC viability (% rod-shaped cardiomyocytes) ([3]; 2 h OGD, reoxygenation)	Cardiomyocyte apoptosis (Cell Death Detection ELISA) ([3]; 2 h OGD, reoxygenation)	Cardioprotection in the rat ([1]; cardioplegic arrest, reperfusion 3 h)
Ac-Gln-Ala-Trp [ANXA1sp]	significantly reduced	significantly reduced	significantly reduced	75±6	significantly reduced	lower myocardial levels of activated caspase-3	5	10	increases lifespan of adult ventricular cardiomyocytes	consistently reduces ARVC injury	significantly reduced Troponin I release	10	increased percentage of characteristic rod-shaped viable cardiomyocytes	reduced cardiomyocyte apoptosis	–
Ac-W^10Q^11A^12 [scrPEP, reference compound]	–	–	–	–	–	–	–	–	–	–	–	–	–	–	did not afford cardioprotection
